This assay has as its target T1, GFP-4E-T Y30A (human) (UniProt Q9NRA8).
T1 sequence: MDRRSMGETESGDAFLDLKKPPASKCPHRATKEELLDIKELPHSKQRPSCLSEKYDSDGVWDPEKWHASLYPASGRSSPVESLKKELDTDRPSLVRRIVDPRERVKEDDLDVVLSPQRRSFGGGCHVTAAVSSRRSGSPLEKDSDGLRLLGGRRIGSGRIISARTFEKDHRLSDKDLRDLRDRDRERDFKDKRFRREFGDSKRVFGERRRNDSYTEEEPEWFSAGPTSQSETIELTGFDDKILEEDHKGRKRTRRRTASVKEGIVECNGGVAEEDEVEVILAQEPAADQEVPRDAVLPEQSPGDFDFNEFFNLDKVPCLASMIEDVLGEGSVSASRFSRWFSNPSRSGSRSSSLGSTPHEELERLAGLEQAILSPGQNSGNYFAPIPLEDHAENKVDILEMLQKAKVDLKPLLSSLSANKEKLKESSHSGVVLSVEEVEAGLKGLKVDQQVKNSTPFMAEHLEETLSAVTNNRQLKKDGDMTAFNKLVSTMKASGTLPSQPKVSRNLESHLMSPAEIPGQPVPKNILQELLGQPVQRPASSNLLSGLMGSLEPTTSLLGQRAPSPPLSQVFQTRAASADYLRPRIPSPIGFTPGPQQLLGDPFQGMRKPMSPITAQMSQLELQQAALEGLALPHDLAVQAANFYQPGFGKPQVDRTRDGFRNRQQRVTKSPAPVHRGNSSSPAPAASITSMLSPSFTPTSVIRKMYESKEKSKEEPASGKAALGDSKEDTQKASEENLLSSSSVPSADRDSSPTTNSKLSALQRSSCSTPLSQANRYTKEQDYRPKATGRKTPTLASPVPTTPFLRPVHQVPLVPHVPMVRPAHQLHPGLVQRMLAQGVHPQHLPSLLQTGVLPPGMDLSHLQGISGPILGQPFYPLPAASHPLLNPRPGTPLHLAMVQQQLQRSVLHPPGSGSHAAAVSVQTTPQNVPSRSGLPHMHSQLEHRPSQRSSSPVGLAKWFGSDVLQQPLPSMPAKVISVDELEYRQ
The experiment in a line: pull-down; GFP-Trap magnetic beads with 1 mg lysate of cells transfected with GFP-4E-T, NET buffer (50 mM Tris-HCl pH 7.5, 150 mM NaCl, 1 mM EDTA, 0.5% Nonidet P-40, 0.25% gelatin), 1.25 h at 4°C; western blotting with eIF4E1, eIF4E2 and 4E-T antibodies. (A western blot detects proteins with antibodies after separation by electrophoresis.)

Amino acid sequences for entries named in this document (tags omitted).
UniProt P06730: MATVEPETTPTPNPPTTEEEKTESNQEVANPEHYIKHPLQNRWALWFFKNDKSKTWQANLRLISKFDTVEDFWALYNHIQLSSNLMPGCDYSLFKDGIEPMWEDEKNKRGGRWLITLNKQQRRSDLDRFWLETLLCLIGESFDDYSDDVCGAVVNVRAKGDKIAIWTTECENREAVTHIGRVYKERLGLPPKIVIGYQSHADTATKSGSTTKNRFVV
UniProt O60573: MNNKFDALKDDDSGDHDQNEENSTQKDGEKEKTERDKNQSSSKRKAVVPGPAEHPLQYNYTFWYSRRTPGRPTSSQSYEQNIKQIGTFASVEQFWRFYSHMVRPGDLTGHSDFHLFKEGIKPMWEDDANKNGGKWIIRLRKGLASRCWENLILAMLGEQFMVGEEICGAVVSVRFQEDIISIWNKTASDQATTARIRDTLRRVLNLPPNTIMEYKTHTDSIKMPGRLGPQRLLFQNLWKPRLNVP

Results are given in words; binding and its absence hold for the method and conditions named. In cells and extracts the contact can be indirect. Where a sequence is shown, tags or fusion partners need not be part of it.

For “eIF4E1 (endogenous) (from UniProt P06730 1-217)”, the binding result is “no binding”.

As for “eIF4E2 (endogenous) (from UniProt O60573 1-245)”, the binding result is reported as “no binding”.

(Values after PMC3749138.)
